Where a name gives a salt, the structure may show the parent alone. ± gives the standard deviation of the averaged measurements. The full ranking holds about 1,300 compounds; the median of “normalised cell viability” is about 1, and the lowest 2% start at about 0.14. The list shows a part of the results.
Test system: V-C8 (BRCA2-deficient hamster cells)
Test: normalised cell viability (fraction of plate median); higher = more viable cells (less toxic)
Details: 5 µM
Summary of the method: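 BRCA2-deficient hamster V-C8 cells and BRCA2-restored V-C8 cells were plated in 96-well plates, and library drugs were added 24 h later at 5 μM in 100 μl medium. Exposure lasted 3 days in screen 1 and 6 days in screen 2, next to solvent-only wells. Viability was then read by resazurin assay, median-plate normalised and averaged across triplicate wells.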

Compound	normalised cell viability (treatment time: 3 days)	normalised cell viability (treatment time: 6 days)
CC1COc2c(N3CCN(C)CC3)c(F)cc3c(=O)c(C(=O)O)cn1c23 (centres undefined) [Ofloxacin]	1 ± 0.013	0.867 ± 0.17
O=C(O)CCCC[C@@H]1SC[C@@H]2NC(=O)N[C@@H]21 [Biotin]	1.12 ± 0.043	0.973 ± 0.023
C[C@@]1(O)CCOC(=O)C1 [Mevalonic-D, L acid lactone]	1.12 ± 0.05	1.05 ± 0.18
COCC(=O)Nc1c(I)c(C(=O)NCC(O)CO)c(I)c(C(=O)N(C)CC(O)CO)c1I (centres undefined) [Iopromide]	0.937 ± 0.075	1.07 ± 0.049
COC(=O)C1=C(C)NC(C)=C(C(=O)OC(C)C)C1c1cccc2nonc12 (centres undefined) [Isradipine]	0.986 ± 0.013	1.04 ± 0.035
C[C@H](CCC(=O)O)[C@H]1CC[C@H]2[C@@H]3CC[C@@H]4C[C@H](O)CC[C@]4(C)[C@H]3CC[C@]12C [Lithocholic acid]	0.892 ± 0.068	0.977 ± 0.083
CC(=O)SCC(Cc1ccccc1)C(=O)NCC(=O)OCc1ccccc1 (centres undefined) [Racecadotril]	1.04 ± 0.018	1.07 ± 0.098
Clc1ccc(Nc2nnc(Cc3ccncc3)c3ccccc23)cc1 [Vatalanib]	0.737 ± 0.012	0.823 ± 0.036
CN1CCC(OC(c2ccccc2)c2ccccc2)CC1 [Diphenylpyraline hydrochloride]	1.02 ± 0.011	1.04 ± 0.034
O=C(Oc1cccc2cccnc12)c1ccccc1 [Benzoxiquine]	0.9 ± 0.062	0.654 ± 0.046
CN(C)CCCN1c2ccccc2CCc2ccccc21 [Imipramine hydrochloride]	0.956 ± 0.016	0.968 ± 0.017
NC(CO)C(=O)NNCc1ccc(O)c(O)c1O (centres undefined) [Benserazide hydrochloride]	1.01 ± 0.029	0.978 ± 0.07
NCCC[C@H](N)CC(=O)N[C@H]1CNC(=O)[C@H]([C@H]2C[C@H](O)NC(N)=N2)NC(=O)/C(=C/NC(N)=O)NC(=O)[C@H](CO)NC(=O)[C@H](CO)NC1=O [Viomycin sulfate]	0.873 ± 0.035	0.958 ± 0.061
O=c1[nH]cnc2c1ncn2[C@H]1CC[C@@H](CO)O1 [Didanosine]	0.985 ± 0.041	0.955 ± 0.04
CN(C/C=C/C#CC(C)(C)C)Cc1cccc2ccccc12 [Terbinafine]	0.181 ± 0.0022	0.229 ± 0.021
Fc1ccc([C@@H]2CCNC[C@H]2COc2ccc3c(c2)OCO3)cc1 [Paroxetine Hydrochloride]	0.676 ± 0.022	0.707 ± 0.023
Nc1nc(O)c2ncn(CCC(CO)CO)c2n1 [Penciclovir]	0.956 ± 0.023	0.976 ± 0.098
NCC[C@H](O)C(=O)N[C@@H]1C[C@H](N)[C@@H](O[C@H]2O[C@H](CN)[C@@H](O)[C@H](O)[C@H]2O)[C@H](O)[C@H]1O[C@H]1O[C@H](CO)[C@@H](O)[C@H](N)[C@H]1O [Amikacin hydrate]	0.161 ± 0.0037	0.146 ± 0.018
O=C1c2cccc3c2[C@H](CCC3)CN1[C@@H]1CN2CCC1CC2 [Palonosetron hydrochloride]	1.04 ± 0.037	0.919 ± 0.02
CC1(C)S[C@@H]2[C@H](NC(=O)Cc3ccccc3)C(=O)N2[C@H]1C(=O)O [Benzathine benzylpenicillin]	1.02 ± 0.094	1.03 ± 0.056
CC1(C)S[C@@H]2[C@H](NC(=O)Cc3ccccc3)C(=O)N2[C@H]1C(=O)O [Benzylpenicillin sodium]	0.972 ± 0.015	1.03 ± 0.058

Compound	normalised cell viability (treatment time: 3 days)	normalised cell viability (treatment time: 6 days)
CCCCc1nc(Cl)c(CO)n1Cc1ccc(-c2ccccc2-c2nnn[nH]2)cc1 [Losartan]	1.019 ± 0.0051	1.052 ± 0.0052
CCN(CC)CCNC(=O)COc1ccc(OC)cc1 [Mefexamide hydrochloride]	0.961 ± 0.036	0.933 ± 0.075
Clc1ccc(C(Cn2ccnc2)OCc2csc3c(Cl)cccc23)c(Cl)c1 (centres undefined) [Sertaconazole nitrate]	0.737 ± 0.18	0.821 ± 0.12
CC(=O)OCC1=C(C(=O)O)N2C(=O)[C@@H](NC(=O)Cc3cccs3)[C@H]2SC1 [Cephalothin sodium salt]	0.939 ± 0.034	0.948 ± 0.058
O=C1CCC(N2C(=O)c3ccccc3C2=O)C(=O)N1 (centres undefined) [Thalidomide]	1.03 ± 0.07	0.957 ± 0.062
O=C1NCCN1CCN1CCC(c2cn(-c3ccc(F)cc3)c3ccc(Cl)cc23)CC1 [Sertindole]	0.385 ± 0.019	0.591 ± 0.069
CNCCCN1c2ccccc2CCc2ccccc21 [Desipramine hydrochloride]	0.907 ± 0.05	0.865 ± 0.053
O=C1OC(CN2CCOCC2)CN1/N=C/c1ccc([N+](=O)[O-])o1 (centres undefined) [Furaltadone hydrochloride]	0.93 ± 0.023	0.917 ± 0.11
O=C(O)CCNC(=O)c1ccc(/N=N/c2ccc(O)c(C(=O)O)c2)cc1 [Balsalazide Sodium]	0.973 ± 0.027	0.953 ± 0.13
CCC(C)n1ncn(-c2ccc(N3CCN(c4ccc(OCC5COC(Cn6cncn6)(c6ccc(Cl)cc6Cl)O5)cc4)CC3)cc2)c1=O (centres undefined) [Itraconazole]	0.822 ± 0.07	0.871 ± 0.041
Cc1cccc(Nc2ccccc2C(=O)O)c1C [Mefenamic acid]	1.14 ± 0.058	0.959 ± 0.059
C[n+]1ccccc1/C=N/O [Pralidoxime chloride]	1.03 ± 0.029	1.02 ± 0.06
O=C(O)CN(CCN(CC(=O)O)CC(=O)O)CCN(CC(=O)O)CC(=O)O [Pentetic acid]	0.996 ± 0.04	1.075 ± 0.0064
C#CCN(C)CCCOc1ccc(Cl)cc1Cl [Clorgyline hydrochloride]	1.11 ± 0.063	1.019 ± 0.0054
CC(C)NCC(O)c1cc(O)cc(O)c1 (centres undefined) [Metaproterenol sulfate, orciprenaline sulfate]	1.17 ± 0.22	1.06 ± 0.011
Cn1c(=O)c2c(ncn2CCO)n(C)c1=O [Etofylline]	1.03 ± 0.052	0.996 ± 0.039
COc1ccccc1N1CCN(CCCNc2cc(=O)n(C)c(=O)n2C)CC1 [Urapidil hydrochloride]	1.033 ± 0.0072	1.01 ± 0.019
CCN(CC)Cc1cc(Nc2ccnc3cc(Cl)ccc23)ccc1O [Amodiaquin dihydrochloride dihydrate]	0.877 ± 0.021	0.934 ± 0.057
CCC(=O)OCC(=O)[C@@]1(OC(=O)CC)[C@@H](C)C[C@H]2[C@@H]3CCC4=CC(=O)C=C[C@]4(C)[C@@]3(Cl)[C@@H](O)C[C@@]21C [Beclomethasone dipropionate]	0.991 ± 0.032	0.93 ± 0.013
C=CCSCC1Nc2cc(Cl)c(S(N)(=O)=O)cc2S(=O)(=O)N1 (centres undefined) [Althiazide]	0.95 ± 0.059	1.03 ± 0.073
CN(C)CC/C=C1/c2ccccc2COc2ccc(CC(=O)O)cc21 [Olopatadine hydrochloride]	1.004 ± 0.0095	1.04 ± 0.016
